The campaign covered roughly 110,000 compounds. About 230 (0.21%) showed an effect of 50% or more. This is one part of the list.
biological target: DPAP1 (Plasmodium falciparum, UniProt Q8IIJ9); test: primary screen, percent inhibition; read by cleavage of a fluorogenic dipeptide substrate; higher = more effect of the substance; set-up: species or system P. falciparum D10 trophozoite lysates; single well
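Note: 30 min substrate incubation versus DMSO and 10 µM JCP410 controls.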

Sequence of DPAP1 (Q8IIJ9 whole entry, looked up): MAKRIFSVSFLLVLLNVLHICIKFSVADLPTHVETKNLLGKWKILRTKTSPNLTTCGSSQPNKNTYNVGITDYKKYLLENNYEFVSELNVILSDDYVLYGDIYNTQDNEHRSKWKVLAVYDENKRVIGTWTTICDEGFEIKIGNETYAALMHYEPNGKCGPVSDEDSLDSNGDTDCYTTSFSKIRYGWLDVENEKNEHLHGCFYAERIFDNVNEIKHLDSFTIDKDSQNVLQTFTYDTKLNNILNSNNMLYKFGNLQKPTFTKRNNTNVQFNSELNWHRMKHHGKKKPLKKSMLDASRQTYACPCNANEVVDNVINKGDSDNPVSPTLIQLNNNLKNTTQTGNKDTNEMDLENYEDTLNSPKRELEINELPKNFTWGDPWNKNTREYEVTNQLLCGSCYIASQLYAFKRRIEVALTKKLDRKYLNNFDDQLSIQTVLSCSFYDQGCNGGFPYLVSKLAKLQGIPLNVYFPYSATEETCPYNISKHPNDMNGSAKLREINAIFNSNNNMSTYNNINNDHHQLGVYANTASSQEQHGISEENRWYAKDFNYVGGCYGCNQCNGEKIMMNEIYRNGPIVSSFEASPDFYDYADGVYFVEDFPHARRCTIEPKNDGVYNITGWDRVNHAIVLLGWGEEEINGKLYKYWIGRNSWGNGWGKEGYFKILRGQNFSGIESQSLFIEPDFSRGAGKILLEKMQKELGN

| SMILES | % Inhibition @ 10 uM |
| --- | --- |
| CCOc1ccc2c(c1)OC1(C)CC2/C(=C(\C)O)C(=O)N1 (centres unmarked) | 9.62% |
| Cc1ccc2c(c1)C1(Nc3ccccc3C(=O)N1CCc1ccccc1)C(=O)N2 (centres unmarked) | 1.49% |
| CCOC(=O)c1c(C)oc2cc(Br)c(OCc3ccccc3)cc12 | 1.37% |
| O=c1c2nccnc2nc(SCc2ccccc2Cl)n1Cc1ccccc1 | 1.39% |
| C=CCNC(=O)C1CC=CCC1C(=O)Nc1cccc([N+](=O)[O-])c1 (centres unmarked) | -0.0217% |
| COc1ccc(CN2CCN(Cc3ccc(C(F)(F)F)cc3)CC2)c(OC)c1OC | 0.214% |
| CN1C(c2ccccc2)CC(O)(C#Cc2ccccc2)CC1c1ccccc1 (centres unmarked) | 2.05% |
| CC(C)c1nc2ccccc2n1C(=O)c1ccccc1C(=O)O | 1.42% |
| Cc1ccc(-c2csc(NC(=O)C(F)(F)F)n2)c(C)c1 | -4.69% |
| CN1CCN(C(=O)c2ccc3nc(-c4ccc(F)cc4)c(-c4ccc(F)cc4)nc3c2)CC1 | -3.26% |
| c1ccc(-c2nc3c(c(-c4ccccc4)n2)CCCC3)cc1 | 3.54% |
| CCOc1cc(/C=C2/C(=N)N3OC(C)=CC3=NC2=O)ccc1O | 0.317% |
| CCN(CC)CCCNS(=O)(=O)c1cc(-c2onc(C)c2C)ccc1OC | 0.359% |
| CCOC(=O)c1cnc2ccccc2c1NCCCN1CCOCC1 | -4.7% |
| Cn1c(CSCc2ccccc2)c(C#N)c2ccccc21 | -1.68% |
| O=C(O)c1ccc(NC(=O)c2ccc(C(=O)Nc3ccc(C(=O)O)cc3)cc2)cc1 | 3.32% |
| COc1ccc(NC(=O)Cn2nc(C(F)F)cc2C)cc1 | 5.04% |
| CC1=C(c2ccc(C)c(C)c2)S(=O)(=O)N(Cc2ccc(C(=O)NCc3cccs3)cc2)C1=O | -1.6% |
| Cc1cccc(C(=O)N(Cc2nc(-c3ccc(Cl)cc3)no2)C(C)C)c1 | -0.958% |
| COc1ccc(NC(=O)COc2ccccc2C(C)C)c(OC)c1 | -0.446% |
| O=C(c1ccc2c(Cl)c3c(nc2c1)CCCC3)N1CCC(N2CCCCC2)CC1 | -6.89% |
| O=C(COc1ccc(Br)cc1)Nc1ccc(CN2CCOCC2)cc1 | -2.83% |
| CCCCC1=NN(C(=O)c2ccccc2O)C(O)(C(F)(F)F)C1 (centres unmarked) | 1.82% |
| COC(=O)C1=C(C)NC(=O)CC1c1ccc(F)c(Br)c1 (centres unmarked) | -1.17% |
| O=c1[nH]c(=O)n(CCc2ccccc2)c2c1C(C(F)(F)F)(C(F)(F)F)NC(Cc1ccccc1)=N2 | 3.87% |

| SMILES | % Inhibition @ 10 uM |
| --- | --- |
| CN(C)CCNC(=O)CCCc1cn(Cc2ccccc2Cl)c2ccccc12 | -0.326% |
| COc1cccc2c1NC(c1cccc3ccccc13)C1CC=CC21 (centres unmarked) | -6.7% |
| O=C(NCCCn1ccnc1)c1cc2nc(-c3cccs3)cc(C(F)(F)Cl)n2n1 | 0.231% |
| C=CCOc1ccccc1/C=c1\sc2nc(-c3cc(OC)c(OC)c(OC)c3)nn2c1=O | 0.561% |
| CN(C)CCCNC(=O)c1c(O)nc2c(c1O)CCCC2 | 4.35% |
| O=C(NCc1ccc(Cl)c(Cl)c1)c1cccnc1 | -1.36% |
| OC1=C2C(=Nc3ccccc3NC2c2ccsc2)CC(c2ccccc2)C1 (centres unmarked) | 4.75% |
| Cc1c(Cc2ccccc2)sc(NC(=O)c2cccs2)c1C(N)=O | 20.9% |
| O=C(NCCCCc1ccccc1)c1ccc(F)cc1 | -4.87% |
| Cc1ccccc1C(=O)Nc1ccc(O)cc1 | -3.43% |
| O=C(O)C1CC=CCC1C(=O)Nc1nc(-c2ccccc2Cl)cs1 (centres unmarked) | -0.865% |
| CCN(C1CCCCC1)S(=O)(=O)c1ccc(OC)cc1 | -3.44% |
| CC(C)(C)C(=O)Nc1c2c(nn1-c1cccc(Cl)c1)CS(=O)(=O)C2 | -3.02% |
| CC1CCN(C(=O)c2ccc(N3C(=O)c4ccccc4C3=O)cc2)CC1 | -5.26% |
| CN1CCN(c2ccc(NC(=O)c3cc4ccccc4o3)cc2)CC1 | -4.36% |
| CC(C)Cn1c(CN2C(=O)c3ccccc3C2=O)nc2ccccc2c1=O | -0.865% |
| Cc1ccc(Cn2c(=O)c3ccccc3n3c(CCC(=O)NCCCOC(C)C)nnc23)cc1 | 5.68% |
| CCN(CC)CCCNC(=O)c1sc2nc(-c3ccc(F)cc3)cn2c1C | 3.19% |
| CC1=C(C(=O)Nc2ccccc2)C(c2ccncc2)C(C#N)=C(SCC(N)=O)N1 (centres unmarked) | -4.91% |
| CCC(Cc1ccccc1)NC(=O)CS(=O)(=O)Cc1nc(-c2cccc(OC)c2)oc1C (centres unmarked) | -0.138% |
| CCOC(=O)c1c(C)oc2cc(CN(C)C)c(O)cc12 | 3.18% |
| CC1=CSC2=NC(=O)/C(=C\c3cccn3-c3ccc(Cl)c(Cl)c3)C(=N)N12 | -7.16% |
| CCNC(=O)c1c(N)sc2c1CCCCC2 | 6.47% |
| Cc1nc2cc(-c3ccc(Cl)cc3)nn2c(C)c1CCC(=O)NCc1ccco1 | 6.1% |
| CCCc1nc(SC)ncc1C(=O)NCCCc1ccccc1 | 1.25% |

| SMILES | % Inhibition @ 10 uM |
| --- | --- |
| O=S1(=O)C(/C=N/CCc2ccccc2)=C(O)c2sccc2N1Cc1ccccc1 | -5.97% |
| CCN(Cc1ccccc1)C(=O)c1cccc(C)c1 | 2.46% |
| CC(C)C[C@H](NC(=O)c1cc2c(C(F)(F)F)nn(C)c2s1)C(=O)NCC#N | -1.82% |
| COc1ccc(OC)c(NC(=O)CN(c2cc(Cl)ccc2C)S(=O)(=O)c2ccccc2)c1 | -6.39% |
| COc1ccc(OC)c(NS(=O)(=O)c2ccc(Cl)cc2)c1 | 5.06% |
| CCOC(=O)N1CCC(N2Cc3cccc(C(=O)NC(C)CCc4ccccc4)c3C2=O)CC1 (centres unmarked) | -4.14% |
| CCOc1ccc(CCNS(=O)(=O)c2ccc(C(=O)O)cc2)cc1OCC | 2.72% |
| COC(=O)c1cc(C)nc2c1c(=O)n(C)c(=O)n2C | 5.58% |
| O=C(/C=C/c1ccc2c(c1)OCO2)N1CCN(c2ccc(F)cc2)CC1 | 0.0538% |
| Cc1ccc(S(=O)(=O)N2CCC(C(=O)NC(C)C)CC2)cc1 | 0.583% |
| Cc1ccc(Cl)cc1N(CC(=O)N1CCN(C)CC1)S(C)(=O)=O | -6.4% |
| Cc1noc(C(=O)NCC2CCCO2)c1Cl (centres unmarked) | -7.13% |
| Cc1ccc(-c2c(NCCc3sccc3C)c(=O)c2=O)cc1C | -1.15% |
| CCOC(=O)Nc1ccc2c(c1)N(C(=O)CN1CCOCC1)c1ccccc1CC2 | -0.736% |
| COc1ccc(C2CC(=O)C(/C=N/c3ccc(Cl)c(Cl)c3)=C(O)C2)cc1 (centres unmarked) | 5.47% |
| CC(C)(C)NS(=O)(=O)c1ccccc1[N+](=O)[O-] | -4.01% |
| O=C(NCc1ccco1)c1cccc(COc2ccc(Cl)cc2Cl)c1 | -3.13% |
| CC1=C(C(=O)NC(C)CCc2ccco2)C2(CCCCC2)OC1=O (centres unmarked) | 6.31% |
| CCOc1ccc(N(CC(=O)N2CCCC2)S(=O)(=O)c2ccc(Cl)cc2)cc1 | -5.92% |
| COc1cc2c(cc1OC)CN(C(=O)CSc1nc(-c3cccnc3)ccc1C#N)CC2 | 3.99% |
| OCCN(CCO)c1ncnc2sc3c(c12)CCCC3 | -11.1% |
| COc1ccc(S(=O)(=O)N(C)CC(=O)NCc2ccco2)cc1OC | 1.19% |
| Cc1cc(/C=C2\SC(=O)N(C)C2=O)c(C)n1-c1ccc2c(c1)OCO2 | 0.146% |
| CC(C)(O)C(=O)/C=C/c1ccc(Cl)cc1Cl | -4.21% |
| CC(C)c1ccc(C2C3=C(O)CC(C)(C)CC3=NC3=C2C(=O)CC(C)(C)C3)cc1 (centres unmarked) | -0.759% |

| SMILES | % Inhibition @ 10 uM |
| --- | --- |
| Cc1cccc(CN2CCN(C(=O)c3ccncc3)CC2)c1 | 5.29% |
| O=C(CN(c1ccc(Cl)cc1Cl)S(=O)(=O)c1ccccc1)NCc1ccncc1 | 2.63% |
| O=C(NCc1cccnc1)c1cccc2ccccc12 | -1.68% |
| CC(=O)N1c2ccccc2N=C2CC(c3ccc(C(C)(C)C)cc3)CC(O)=C2C1c1ccncc1 (centres unmarked) | 3.05% |
| CC(C)N(C(=O)Cn1cc(SCC(=O)NCCc2ccccc2)c2ccccc21)C(C)C | 2.46% |
| O=C(CNC(=O)OCc1ccccc1)Oc1c(Cl)c(Cl)c(Cl)c(Cl)c1Cl | -3.65% |
| O=C(Nc1nc2c(s1)C(=O)CCC2)c1ccccc1 | -5.51% |
| Cc1cccc(OCC(=O)Nc2ccc(S(=O)(=O)N3CCC(C)CC3)cc2)c1 | -5.95% |
| O=c1onc(-c2cccs2)n1Cc1ccc(F)cc1Cl | -0.0652% |
| O=C(O)C1Cc2c([nH]c3ccccc23)C(c2cc([N+](=O)[O-])ccc2O)N1 (centres unmarked) | -0.415% |
| CCOc1ccccc1N(CC(=O)Nc1ccccc1C(C)C)S(C)(=O)=O | -11% |
| Clc1ccc(N2N=C(/C=C/c3ccccc3)CC2c2ccccc2)cc1 (centres unmarked) | 5.77% |
| COc1ccc(NC(=O)c2ccc3c(c2)C(=O)N(c2ccccc2OC)C3=O)c(OC)c1 | 3.24% |
| CC(C)c1ccc(OCCCCCN2CCOCC2)cc1 | -1.17% |
| COc1ccc2oc(/C=C/N(C)C)c(C(=O)c3ccc(Br)cc3)c2c1 | 3% |
| CS(=O)(=O)/N=C/N[C@@H](CS(=O)(=O)Cc1ccccc1OC(F)F)C(=O)NCC#N | -6.78% |
| OC1c2ccccc2CCc2ccc3ccccc3c21 (centres unmarked) | 0.726% |
| Cc1c(Cl)cccc1NS(=O)(=O)c1ccccc1 | -0.197% |
| COc1cc(C(=O)O/N=C(\C)c2ccc(Cl)cc2)cc(OC)c1OC | 4.42% |
| CCc1ccc(S(=O)(=O)c2nnn3c2nc(NCc2ccco2)c2cc(Cl)ccc23)cc1 | -8.58% |
| CCOc1ccc2ncc(S(=O)(=O)c3ccccc3)c(N3CCCC3)c2c1 | 1.62% |
| CCC(C)NC(=O)c1cnn2c1NC(c1ccc(OC)cc1)CC2C(F)(F)F (centres unmarked) | 7.93% |
| OC(COCC1COc2ccccc2O1)CN1CCN(Cc2ccccc2)CC1 (centres unmarked) | -4.21% |
